Test results reported in PubChem BioAssay AID1466 (National Center for Advancing Translational Sciences (NCATS), 2008).
Screen size: about 200,000 compounds; about 10 (0.005%) were called active. This list was built around the results that the source calls inconclusive (neither active nor inactive); the mix of calls is not that of the screen. Calls come from the whole dose curve; as a rule, active = well fitted inhibition curve with a large enough effect; inconclusive = small, poorly fitted or top-dose-only effect, or effect the other way, or another doubt; inactive = no such curve, though single readings can be large or run the other way. Potencies of inconclusive entries are doubtful fits and often do not repeat.

These compounds were tested against Lysosomal alpha-glucosidase (Homo sapiens) (UniProt P10253) (assay: qHTS Assay for Inhibitors of Human alpha-Glucosidase as a Potential Chaperone Treatment of Pompe Disease). Conditions: purified human GAA, 4-MU-alpha-glucoside fluorescence; activity change, negative = inhibition: at 76.9 µM (top of the series) unless noted.
Summary of the method: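 Fluorescence at Ex 365/Em 440 nm from 4-methylumbelliferone reported enzyme activity after 20 min at room temperature. Reactions used 4 nM enzyme and 400 uM substrate at pH 5.0; curves fitted with the Hill equation.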
Potency is the fitted concentration of half-maximal effect; tags give direction and shape of the fitted curve.
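Throughout, for activity change, negative = inhibition: plate controls were uninhibited enzyme wells for no effect and no-enzyme background for full effect.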

Potency, inactive:
COC(=O)c1sc(NC(=O)c2ccc(C)o2)nc1C
COc1ccc(Cn2nnnc2C(C(C)C)N2CCN(c3ccccc3OC)CC2)cc1 (stereo not drawn)
O=c1ccn(-c2cccc(C(F)(F)F)c2)nc1-c1ccn(-c2ccccc2)n1

Potency, inconclusive:
Cc1ccc(N(CC(O)COCc2ccco2)S(=O)(=O)c2ccc(C)cc2)cc1 (stereo not drawn) 44.7 µM [inhibitor, partial curve, poor fit]
Cc1cc(/C=N/NC(=O)Cn2c3ccccc3c(=O)c3ccccc32)c(C)n1-c1ccc(Cl)cc1 50.1 µM [activator, single point]
COc1ccc(OC)c(NC(=O)C2CCCN(S(=O)(=O)c3cccc4cccnc34)C2)c1 (stereo not drawn) 12.6 µM [inhibitor, partial curve]
Fc1ccc(C2=NN(c3ccccc3)C(c3ccco3)C2)cc1 (stereo not drawn) 35.5 µM [activator, partial curve]
O=C(CNC(=O)c1ccc(S(=O)(=O)N2CCCC2)cc1)N/N=C/c1c(Cl)cccc1Cl 15.8 µM [inhibitor, partial curve]
COC(=O)c1sccc1NC(=O)c1ccc(C)s1 50.1 µM [inhibitor, single point]
[O-]/C(=C(\C(=S)NCc1ccc2c(c1)OCO2)[n+]1ccccc1)c1ccc(Cl)s1 50.1 µM [inhibitor, partial curve, poor fit]
O=C(O)c1c(-c2ccccc2)c2oc3ccccc3c2[nH]c1=O 39.8 µM [activator, single point]
Cc1ccc(-n2ncc3c(=O)n(-c4ccc(C)c(C)c4)c(-c4ccco4)nc32)cc1 11.2 µM [inhibitor, single point]
O=C(Nc1cccc(S(=O)(=O)N2CCCCC2)c1)c1c2c(nc3ccccc13)CCN(Cc1ccccc1)C2 35.5 µM [inhibitor, single point]
COC(=O)C1=CN(Cc2ccc(OC)cc2)C=C(C(=O)OC)C1c1cccs1 25.1 µM [activator, partial curve]
N#CCCN(Cc1cccnc1)S(=O)(=O)c1ccc(S(=O)(=O)NC2CCCCC2)cc1 1.26 µM [inhibitor, full curve, poor fit]
COC(=O)Cc1c(C)c2ccc(OCC(=O)N3CCOCC3)cc2oc1=O 0.178 µM [inhibitor, full curve, poor fit]
Cc1cc(C)nc(N2CCCC(C(=O)Nc3cc(F)ccc3C)C2)n1 (stereo not drawn) 35.5 µM [inhibitor, partial curve]
CCn1c(SCc2ccccc2)nnc1-c1ccc(S(=O)(=O)N2CCCCC2)cc1 28.2 µM [inhibitor, partial curve]
C=CCNc1nc(Nc2ccc(OC)cc2OC)nc(OCC)n1 35.5 µM [inhibitor, partial curve]
O=S(=O)(Nc1nc2c(s1)CCCC2)c1ccc(F)cc1 8.91 µM [inhibitor, full curve]
O=C(CN1C(=O)/C(=C\c2cccc(F)c2)Oc2ccccc21)N1CCN(c2ccccn2)CC1 5.01 µM [activator, partial curve]
COc1ccc(C2CC(c3cccs3)n3nc(N)nc3N2)cc1 (stereo not drawn) 35.5 µM [activator, single point]
CCOc1ccc(NC(=S)NCc2cccnc2)cc1 2 µM [inhibitor, single point]
Cc1cc(/C=C2\SC(=S)NC2=O)c(C)[nH]1 50.1 µM [inhibitor, single point]
COCCCNC(=O)c1ccc2c(=O)n(Cc3ccc(OC)cc3)c(=O)[nH]c2c1 28.2 µM [activator, single point]
COc1ccc(OC)c(NC2=NC3(CCCCC3)N=C(N)N2)c1 2.82 µM [inhibitor, partial curve, poor fit]
N#C/C(C(=O)N1CCOCC1)=C1\Nc2ccccc2S1 50.1 µM [activator, single point]
COc1ccc(CC(C(=O)Nc2cccc(F)c2)c2nn[nH]n2)c(OC)c1 (stereo not drawn) 56.2 µM [inhibitor, partial curve, poor fit]
Cc1cccc2sc(NC(=O)C3CCCN(S(=O)(=O)c4cccc5nonc45)C3)nc12 (stereo not drawn) 22.4 µM [inhibitor, partial curve, poor fit]
COC(=O)c1ccc(C(=O)OC)c(NC(=O)COC(=O)c2ccccc2OC)c1 7.08 µM [inhibitor, single point]
CC(C(=O)Nc1ccccc1Br)c1ccc([N+](=O)[O-])cc1 (stereo not drawn) 28.2 µM [inhibitor, single point]
Cc1onc(-c2ccccc2Cl)c1C(=O)N1CCc2ccccc2C1 44.7 µM [inhibitor, single point]
Cc1ccc(C)c(N2CN(CCC3=CCCCC3)CNC2=S)c1 1.26 µM [inhibitor, single point]
O=C(NCCCN1CCN(c2ccccc2F)CC1)C1CCN(S(=O)(=O)N2CCOCC2)CC1 11.2 µM [inhibitor, full curve]
CCOC(=O)c1ccc(N/C(=N\S(=O)(=O)c2ccc(F)cc2F)c2ccccc2)cc1 7.94 µM [inhibitor, partial curve, poor fit]
COc1ccc(CCNC(=O)c2ccc(Cl)cc2)cc1OC 0.158 µM [inhibitor, full curve, poor fit]
COCCCNC(=O)c1c[nH]c2ccc(S(=O)(=O)N3CCC4(CC3)OCCO4)cc2c1=O 11.2 µM [inhibitor, single point]
CCOc1cc(/C=C2/C(=O)N(c3ccccc3)N=C2C)ccc1OC(=O)c1cccs1 11.2 µM [inhibitor, single point]
O=C(Nc1ccc(Cl)cn1)c1ccc(COCC(F)(F)C(F)F)o1 31.6 µM [inhibitor, single point]
CC(=O)C1=C(O)C=C(c2ccco2)CC1c1ccco1 (stereo not drawn) 12.6 µM [inhibitor, partial curve, poor fit]
Cc1ccc(S(=O)(=O)N2CCOCC2)cc1C(=O)NCc1ccco1 3.16 µM [inhibitor, partial curve, poor fit]
CCOC(=O)C1CCCN(Cc2nc(N)nc(Nc3ccccc3)n2)C1 (stereo not drawn) 0.447 µM [inhibitor, full curve, poor fit]
Cc1cccnc1NC1OC(=O)c2ccccc21 (stereo not drawn) 6.31 µM [inhibitor, full curve, poor fit]

Activity change, negative = inhibition, inconclusive:
COc1ccc2c(C)cc(N3CCCCCC3)nc2c1 16.4% [activator]
N#C/C(=C\c1c(N(Cc2ccccc2)Cc2ccccc2)nc2ccccn2c1=O)C(N)=O -17.3% [inhibitor]
CCC(C)NCC(=O)Nc1ccc([N+](=O)[O-])cc1C(=O)Nc1ccccc1F (stereo not drawn) -17.7% [inhibitor]
COc1ccc2nc(NC(=O)CCn3cccc3)sc2c1 -16% [inhibitor]
COc1cc2cc(CN(Cc3nnnn3Cc3ccco3)C3CCCCC3)c(=O)[nH]c2cc1OC 23.4% [activator]
Cc1cc2c3c(c1)C(C)CC(C)(C)N3C(=O)C2=O (stereo not drawn) 16.8% [activator]
CCOC(=O)C1(Cc2ccccc2)CCCN(C2CCCC2)C1 (stereo not drawn) 17.3% [activator]
Nc1ccn(-c2ncc(C(F)(F)F)cc2Cl)c(=O)n1 16.1% [activator]
S=c1[nH]nc(-c2ccccc2)c2ccccc12 7.95% [activator]
CCOC(=O)COc1ccccc1C1Nc2ccccc2C(=O)N1c1cccc(Cl)c1 (stereo not drawn) 21.5% [activator]
CN1CCN(S(=O)(=O)c2ccc(NC(=S)NC(=O)C(C)(C)C)cc2)CC1 15.5% [activator]
CCC(=O)Nc1nnc(CCc2ccccc2)s1 19.1% [activator]
CS(=O)(=O)N1CCCC(C(=O)c2cccc(Cl)c2)C1 (stereo not drawn) 10.6% [activator]
Cc1ccc(S(=O)(=O)N[C@H](C(=O)OCC(=O)NC(=O)Nc2ccc3c(c2)OCCO3)C(C)C)cc1 -17% [inhibitor]
CCOC(=O)c1sc(NC(=O)CSc2n[nH]c(CC)n2)nc1C 17% [activator]
CCN(CC)CCNC(=O)Cc1nn(Cc2ccccc2)c(=O)c2ccccc12 24.7% [activator]
COc1ccc(N(C(=O)c2cccnc2)S(=O)(=O)c2cccs2)cc1 10.7% [activator]
CC(C)N1CCc2c(sc(NC(=O)c3ccc(S(=O)(=O)N4CCOCC4)cc3)c2C#N)C1 -15.5% [inhibitor]
COC(=O)c1[nH]c2cc(OC)c(OC)cc2c1NC(=O)Oc1ccccc1 -15.4% [inhibitor]
COC(=O)C1=C(N)N(c2ccccc2C(F)(F)F)C2=C(C(=O)CCC2)C1c1ccc2c(c1)OCO2 (stereo not drawn) 19.4% [activator]
